# Some of the results follow.
# B1: PfulAvr4 2 (Pseudocercospora fuligena) (protein)
# chain: HHHHHHDYKDDDDKAKPIKPFACPPKDFTTTKCQGPVDCLYANPLSCLGYIQCVCDDDACSTATPYAKSCPTGLAWVEKLKRCDGIKKSACPKKMYEGS
# Legend:
# Test in all cases: glycan array binding signal (z-score within array); higher = stronger binding
# Conditions in all cases: glycan notation: IUPAC condensed, linker removed
# [1] = target: GalNAc(b1-4)GlcNAc(b1-2)Man
# How it was run: (§1)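 The binding signal is a Z-score computed within each array. Data were drawn from 3228 arrays in the Consortium for Functional Glycomics database, restricted to those with a known protein sequence. Scores were averaged over arrays of the same protein sequence at different concentrations or buffers, and over linkers, and negative values can be taken as non-binding.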
# [2] = target: GalNAc(b1-4)GlcNAc(b1-2)Man(a1-3)[GalNAc(b1-4)GlcNAc(b1-2)Man(a1-6)]Man(b1-4)GlcNAc(b1-4)GlcNAc
# How it was run: as §1
# [3] = target: GalNAc(b1-4)GlcNAc(b1-3)GalNAc(b1-4)GlcNAc
# How it was run: as §1
# GalNAc(b1-4)GlcNAc6S = target: GalNAc(b1-4)GlcNAc6S
# How it was run: as §1
# GalNAc(b1-6)GalNAc = target: GalNAc(b1-6)GalNAc
# How it was run: as §1
# GalNAc3S(b1-4)GlcNAc = target: GalNAc3S(b1-4)GlcNAc
# How it was run: as §1
# GalNAc3S(b1-4)GlcNAc3S = target: GalNAc3S(b1-4)GlcNAc3S
# How it was run: as §1
# [4] = target: GalNAc3S(b1-4)[Fuc(a1-3)]GlcNAc
# How it was run: as §1
# GalNAc4S6S(b1-4)GlcNAc = target: GalNAc4S6S(b1-4)GlcNAc
# How it was run: as §1
# GalNAc6S(b1-4)GlcNAc = target: GalNAc6S(b1-4)GlcNAc
# How it was run: as §1
# Glc(a1-4)Glc = target: Glc(a1-4)Glc
# How it was run: as §1
# [5] = target: Glc(a1-4)Glc(a1-4)Glc(a1-4)Glc
# How it was run: as §1
# Glc(a1-6)Glc(a1-6)Glc = target: Glc(a1-6)Glc(a1-6)Glc
# How it was run: as §1
# [6] = target: Glc(a1-6)Glc(a1-6)Glc(a1-6)Glc
# How it was run: as §1
# Glc(b1-4)Glc = target: Glc(b1-4)Glc
# How it was run: as §1
# Glc(b1-6)Glc = target: Glc(b1-6)Glc
# How it was run: as §1
# GlcA(b1-3)Gal = target: GlcA(b1-3)Gal
# How it was run: as §1
# GlcA(b1-3)GlcNAc = target: GlcA(b1-3)GlcNAc
# How it was run: as §1
# GlcA(b1-6)Gal = target: GlcA(b1-6)Gal
# How it was run: as §1
# [7] = target: GlcA3S(b1-3)Gal(b1-4)GlcNAc(b1-2)Man
# How it was run: as §1
# [8] = target: GlcA3S(b1-3)Gal(b1-4)GlcNAc(b1-3)Gal(b1-4)Glc
# How it was run: as §1
# [9] = target: GlcNAc(a1-3)Gal(b1-4)GlcNAc
# How it was run: as §1
# [10] = target: GlcNAc(a1-4)Gal(b1-3)GlcNAc
# How it was run: as §1
# [11] = target: GlcNAc(a1-4)Gal(b1-4)GalNAc
# How it was run: as §1
# [12] = target: GlcNAc(a1-4)Gal(b1-4)GlcNAc
# How it was run: as §1
# [13] = target: GlcNAc(a1-4)Gal(b1-4)GlcNAc(b1-3)Gal(b1-4)Glc
# How it was run: as §1
# [14] = target: GlcNAc(a1-4)Gal(b1-4)GlcNAc(b1-3)Gal(b1-4)GlcNAc
# How it was run: as §1
# [15] = target: GlcNAc(a1-4)Gal(b1-4)GlcNAc(b1-3)Gal(b1-4)GlcNAc(b1-3)Gal(b1-4)GlcNAc
# How it was run: as §1
# [16] = target: GlcNAc(a1-4)Gal(b1-4)GlcNAc(b1-3)Gal(b1-4)[Fuc(a1-3)]GlcNAc(b1-3)Gal(b1-4)[Fuc(a1-3)]GlcNAc
# How it was run: as §1
# [17] = target: GlcNAc(a1-6)Gal(b1-4)GlcNAc
# How it was run: as §1
# [18] = target: GlcNAc(b1-2)Gal(b1-3)GalNAc
# How it was run: as §1
# [19] = target: GlcNAc(b1-2)Man(a1-3)[GlcNAc(b1-2)Man(a1-6)]Man(b1-4)GlcNAc(b1-4)GlcNAc
# How it was run: as §1
# [20] = target: GlcNAc(b1-2)Man(a1-3)[GlcNAc(b1-2)Man(a1-6)]Man(b1-4)GlcNAc(b1-4)[Fuc(a1-6)]GlcNAc
# How it was run: as §1
# [21] = target: GlcNAc(b1-2)Man(a1-3)[GlcNAc(b1-4)][GlcNAc(b1-2)Man(a1-6)]Man(b1-4)GlcNAc(b1-4)GlcNAc
# How it was run: as §1
# [22] = target: GlcNAc(b1-2)Man(a1-3)[GlcNAc(b1-4)][GlcNAc(b1-2)Man(a1-6)]Man(b1-4)GlcNAc(b1-4)[Fuc(a1-6)]GlcNAc
# How it was run: as §1
# [23] = target: GlcNAc(b1-2)[GlcNAc(b1-4)]Man(a1-3)[GlcNAc(b1-2)Man(a1-6)]Man(b1-4)GlcNAc(b1-4)GlcNAc
# How it was run: as §1
# [24] = target: GlcNAc(b1-2)[GlcNAc(b1-4)]Man(a1-3)[GlcNAc(b1-4)][GlcNAc(b1-2)Man(a1-6)]Man(b1-4)GlcNAc(b1-4)GlcNAc
# How it was run: as §1
# [25] = target: GlcNAc(b1-2)[GlcNAc(b1-4)]Man(a1-3)[GlcNAc(b1-4)][GlcNAc(b1-2)[GlcNAc(b1-6)]Man(a1-6)]Man(b1-4)GlcNAc(b1-4)GlcNAc
# How it was run: as §1
# [26] = target: GlcNAc(b1-2)[GlcNAc(b1-4)]Man(a1-3)[GlcNAc(b1-4)][GlcNAc(b1-2)[GlcNAc(b1-6)]Man(a1-6)]Man(b1-4)GlcNAc(b1-4)[Fuc(a1-6)]GlcNAc
# How it was run: as §1
# [27] = target: GlcNAc(b1-2)[GlcNAc(b1-6)]Man(a1-6)[GlcNAc(b1-2)Man(a1-3)]Man(b1-4)GlcNAc(b1-4)GlcNAc
# How it was run: as §1
# [28] = target: GlcNAc(b1-2)[GlcNAc(b1-6)]Man(a1-6)[GlcNAc(b1-2)Man(a1-3)]Man(b1-4)GlcNAc(b1-4)[Fuc(a1-6)]GlcNAc
# How it was run: as §1
# [29] = target: GlcNAc(b1-2)[GlcNAc(b1-6)]Man(a1-6)[GlcNAc(b1-4)][GlcNAc(b1-2)Man(a1-3)]Man(b1-4)GlcNAc(b1-4)GlcNAc
# How it was run: as §1
# GlcNAc(b1-3)Fuc = target: GlcNAc(b1-3)Fuc
# How it was run: as §1
# GlcNAc(b1-3)Gal = target: GlcNAc(b1-3)Gal
# How it was run: as §1
# [30] = target: GlcNAc(b1-3)Gal(b1-3)GalNAc
# How it was run: as §1
binder,measurement,setting,value
B1,glycan array binding signal (z-score),[1],-0.384
same,glycan array binding signal (z-score),[2],-0.129
same,glycan array binding signal (z-score),[3],-0.272
same,glycan array binding signal (z-score),GalNAc(b1-4)GlcNAc6S,-0.205
same,glycan array binding signal (z-score),GalNAc(b1-6)GalNAc,-0.367
same,glycan array binding signal (z-score),GalNAc3S(b1-4)GlcNAc,-0.203
same,glycan array binding signal (z-score),GalNAc3S(b1-4)GlcNAc3S,-0.461
same,glycan array binding signal (z-score),[4],-0.403
same,glycan array binding signal (z-score),GalNAc4S6S(b1-4)GlcNAc,-0.341
same,glycan array binding signal (z-score),GalNAc6S(b1-4)GlcNAc,-0.276
same,glycan array binding signal (z-score),Glc(a1-4)Glc,0.168
same,glycan array binding signal (z-score),[5],-0.123
same,glycan array binding signal (z-score),Glc(a1-6)Glc(a1-6)Glc,0.073
same,glycan array binding signal (z-score),[6],0.132
same,glycan array binding signal (z-score),Glc(b1-4)Glc,0.518
same,glycan array binding signal (z-score),Glc(b1-6)Glc,0.175
same,glycan array binding signal (z-score),GlcA(b1-3)Gal,-0.192
same,glycan array binding signal (z-score),GlcA(b1-3)GlcNAc,-0.017
same,glycan array binding signal (z-score),GlcA(b1-6)Gal,-0.241
same,glycan array binding signal (z-score),[7],-0.283
same,glycan array binding signal (z-score),[8],-0.468
same,glycan array binding signal (z-score),[9],-0.292
same,glycan array binding signal (z-score),[10],-0.417
same,glycan array binding signal (z-score),[11],-0.388
same,glycan array binding signal (z-score),[12],-0.432
same,glycan array binding signal (z-score),[13],-0.369
same,glycan array binding signal (z-score),[14],-0.149
same,glycan array binding signal (z-score),[15],-0.366
same,glycan array binding signal (z-score),[16],-0.234
same,glycan array binding signal (z-score),[17],-0.377
same,glycan array binding signal (z-score),[18],-0.258
same,glycan array binding signal (z-score),[19],-0.208
same,glycan array binding signal (z-score),[20],-0.107
same,glycan array binding signal (z-score),[21],-0.252
same,glycan array binding signal (z-score),[22],-0.341
same,glycan array binding signal (z-score),[23],-0.282
same,glycan array binding signal (z-score),[24],-0.195
same,glycan array binding signal (z-score),[25],-0.386
same,glycan array binding signal (z-score),[26],-0.352
same,glycan array binding signal (z-score),[27],-0.231
same,glycan array binding signal (z-score),[28],-0.061
same,glycan array binding signal (z-score),[29],-0.281
same,glycan array binding signal (z-score),GlcNAc(b1-3)Fuc,-0.284
same,glycan array binding signal (z-score),GlcNAc(b1-3)Gal,-0.44
same,glycan array binding signal (z-score),[30],-0.214

# Source: the supplement of paper PMC8728848
